Measured values from PubChem BioAssay AID1745845 (National Center for Advancing Translational Sciences (NCATS), 2022).
In all, about 360,000 compounds went through this assay and about 2,600 (0.72%) were called active. Inconclusive results, whose numbers are uncertain, are shown with a selection of clear calls. Calls come from the whole dose curve; as a rule, active = well fitted inhibition curve with a large enough effect; inconclusive = small, poorly fitted or top-dose-only effect; inactive = no such curve, though single readings can be large or run the other way. Potencies of inconclusive entries are doubtful fits and often do not repeat.

Test: Primary qHTS for Inhibitors of ATXN expression; note: nearly all actives have a fitted effect of over 55% in size
Settings: HEK-293 ATXN2-luciferase reporter, luminescence, 24 h; activity change, negative = inhibition: at 57 µM (top of the series)
Method in brief: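 qHTS (up to 57 uM final) was run with 24 h compound exposure of reporter cells at 37 °C. Each well was multiplexed: SteadyGlo luminescence measured ATXN2-luciferase expression after a fluorogenic Gly-Phe-AFC viability readout (25 uM final).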
% is set by controls: 0 for no effect and ±100 for the full control effect; potency is the fitted concentration of half-maximal effect; tags give direction and shape of the fitted curve.

SMILES	Potency	activity change, negative = inhibition
Cc1cccc(NC(=O)c2sc3nc4c(cc3c2N)CN(Cc2ccccc2)CC4)c1	inconclusive: 39.8 µM [inhibitor, single point]	
N#Cc1ccc(C(=O)Nc2ccn(-c3ccccc3)n2)cc1	inconclusive: 14.1 µM [inhibitor, partial curve, poor fit]	
CC12CCC(C(=O)Nc3ncc([N+](=O)[O-])s3)(OC1=O)C2(C)C (stereo not given)	inactive	
CN(C)CCNS(=O)(=O)c1ccc(N2CCc3ccccc32)c([N+](=O)[O-])c1	inconclusive: 15.8 µM [inhibitor, partial curve]	
CC1(C)Cc2ccccc2-c2nc3n(c(=O)c21)CCS3	inconclusive: 14.1 µM [inhibitor, partial curve, poor fit]	
CC1(c2ccccc2)CC(C)(C)N(C(=O)CSc2nnc(N)s2)c2ccccc21 (stereo not given)	inconclusive: 39.8 µM [inhibitor, single point]	
C=CCc1cccc(/C=N/NC(=O)C(C)Nc2ccc(C)cc2)c1O (stereo not given)	active: 22.4 µM	
COCc1cc(=O)oc2cc(NC(=O)c3ccc(C(C)(C)C)cc3)ccc12	inconclusive: 37.7 µM [inhibitor, single point]	
Cc1ccc(CN(C(=O)COc2ccc(C(C)C)cc2)C2CCS(=O)(=O)C2)o1 (stereo not given)	inconclusive: 39.8 µM [inhibitor, single point]	
Cc1ccc(N=Cc2cc3c(cc2O)OC(N)=C(C#N)C3c2ccccc2)cc1 (stereo not given)	inconclusive: 14.1 µM [inhibitor, partial curve]	
Cc1cccc(NC(=O)c2nc[nH]c2C(=O)N[C@@H](C)c2ccccc2)c1	inconclusive: 39.8 µM [inhibitor, single point]	
COc1cccc(/C=N/Nc2nc3ccccc3n3cnnc23)c1O	inconclusive: 31.6 µM [inhibitor, single point]	
COc1ccc(S(=O)(=O)N2CCCCCC2)cc1C(=O)N(C)Cc1ccc(C(C)(C)C)cc1	inconclusive: 35.5 µM [inhibitor, single point]	
Cc1ccc(CNC(=O)c2nc(-c3ccc(Cl)cc3)n3c2CCCCC3)cc1	inconclusive: 39.8 µM [inhibitor, partial curve, poor fit]	
CCCOc1ccc(C(=O)c2ccccc2C(=O)OC2CCOC2=O)cc1OCCC (stereo not given)	inconclusive: 39.8 µM [inhibitor, single point]	
Cc1ccc(-c2cnc(C(O)c3cc(C)cc(C)c3)[nH]2)cc1 (stereo not given)	inactive	
C/C(=N\NC(=O)CCc1ccccc1)C1C(=O)c2ccccc2C1=O	inconclusive: 37.7 µM [inhibitor, single point]	
CN(C(=O)c1ccc(F)cc1C(F)(F)F)C1CCN(c2nnc(-c3ccnn3C)c3ccccc23)CC1	inconclusive: 6.85 µM [inhibitor, partial curve]	
CCOC(=O)c1sc(=S)[nH]c1C	inactive	
COc1ccc(NC(=O)C(C)N2c3cccc4cccc(c34)S2(=O)=O)cc1OC (stereo not given)	inconclusive: 15.8 µM [inhibitor, partial curve, poor fit]	
CCCC(=O)NC(c1cccs1)c1cc([N+](=O)[O-])c2cccnc2c1O (stereo not given)	inconclusive: 25.1 µM [inhibitor, single point]	
CCCCNc1nc(Oc2ccc(OCCC)nn2)nc(N(C)C)n1	inactive	

SMILES	Potency	activity change, negative = inhibition
Cc1cccc(N(C)C(=O)CN(C)S(=O)(=O)c2ccc3[nH]c4c(c3c2)CCCC4)c1	inactive	
Cc1cccc(NC(=O)c2ccc3nsnc3c2)c1C	inconclusive: 1.06 µM [inhibitor, partial curve, poor fit]	
O=S(=O)(c1cccc(NC(=S)N2CCN(c3ccccc3)CC2)c1)C(F)F	inconclusive: 25.1 µM [inhibitor, single point]	
CCOc1ccc2[nH]c(=O)c(CN(CCc3ccccc3)C(=O)N3CCCC3)cc2c1	inconclusive: 31.6 µM [inhibitor, single point]	
Cc1nnc(SCc2nc(-c3ccc(Cl)cc3)no2)n1-c1ccc(F)cc1	inconclusive: 8.91 µM [inhibitor, partial curve]	
CCCS(=O)(=O)c1c(S(=O)(=O)CCC)c2c(C)cccn2c1C(=O)N/N=C/c1cc(O)cc(O)c1	active: 7.94 µM	
COC(=O)c1ccc(CO/N=C2\CCCc3nonc32)cc1	inconclusive: 37.7 µM [inhibitor, single point]	
O=C1NC2c3c(Cl)sc(Cl)c3C(=O)C2O1 (stereo not given)	inconclusive: 25.1 µM [inhibitor, single point]	
Cc1nc(N2CCN(C(=O)c3ccc(Cl)cc3)CC2)c(C#N)c2c1COC(C)(C)C2	inconclusive: 7.08 µM [inhibitor, partial curve, poor fit]	
CC(=O)c1cccc(NC(=O)CSc2ccc(-c3ccccn3)nn2)c1	inconclusive: 22.4 µM [inhibitor, single point]	
CC/C(=C/c1sc2ccc(C)cc2[n+]1CCCS(=O)(=O)[O-])SC	inactive	
O=C(NC1CCc2ccccc21)c1cc(COc2cncc(Cl)c2)on1 (stereo not given)	inactive	
COc1ccc(CN(CCC(c2ccccc2)c2ccc(OC(C)C)cc2)C(=O)CCl)cc1OC (stereo not given)	inconclusive: 3.98 µM [inhibitor, full curve, poor fit]	
Cc1ccc(C(C)(C)C)cc1S(=O)(=O)Nc1nc2ccccc2nc1Cl	inconclusive: 14.1 µM [inhibitor, partial curve, poor fit]	
C/C(=N\NC(=S)Nc1cc(S(=O)(=O)N2CCOCC2)ccc1Cl)c1ccccc1F	inactive	
Cc1ccnc(N2C(=O)c3cccc4c([N+](=O)[O-])ccc(c34)C2=O)c1	inconclusive: 35.5 µM [inhibitor, single point]	
Cc1cccc(C(=O)OCC(=O)Nc2nnc(-c3ccccc3)o2)c1O	inactive	
COc1ccccc1N1CCN(c2ncnc3c2nc2n3CCCC2)CC1	inconclusive: 39.8 µM [inhibitor, single point]	
COc1cccc(/C=C/C(=O)c2ccc(NC3=NCCCS3)cc2)c1	inconclusive: 39.8 µM [inhibitor, single point]	
O=C(CC(=O)c1ccccc1O)c1cccc(F)c1	inconclusive: 39.8 µM [inhibitor, partial curve, poor fit]	
Cc1ccc(N=Cc2cc(Cc3ccccc3Cl)cc([N+](=O)[O-])c2O)c(O)c1	inconclusive: 39.8 µM [inhibitor, single point]	
Cc1cccn2c(=O)c3cc(C(=O)NCCc4ccccc4)c(=N)n(CCCn4ccnc4)c3nc12	inconclusive: 22.4 µM [inhibitor, single point]	

SMILES	Potency	activity change, negative = inhibition
Nc1ncccc1OCc1cccc(C(F)(F)F)c1	inactive	
CCc1nc(Nc2ccncc2)c2oc3ccccc3c2n1	inconclusive: 25.1 µM [inhibitor, single point]	
O=C(Nc1ccc(S(=O)(=O)Nc2ccc(Cl)cc2)cc1)C1CCCO1 (stereo not given)	inactive	
O=C(Nc1ccc(F)cc1)c1nn(-c2ccccc2)c(=O)cc1Cl	inconclusive: 37.7 µM [inhibitor, single point]	
O=Cc1ccnc(-c2ccc(OC(=O)c3ccco3)cc2)n1	inconclusive: 21.2 µM [inhibitor, single point]	
Cc1ccc(NC(=O)CCNCc2ccco2)cc1S(=O)(=O)N(C)C	inactive	
Cc1ccc(NS(=O)(=O)c2cccc(C(=O)NNC(=O)c3cccn3C)c2)c(C)c1	inconclusive: 7.08 µM [inhibitor, single point]	
COCC(=O)N1CCCC(C)(C(=O)Nc2cccc(Oc3ccccc3)c2)C1 (stereo not given)	inactive	
Cc1cccc(OCC(=O)N(Cc2ccccc2)c2c(N)n(Cc3ccccc3)c(=O)[nH]c2=O)c1	inconclusive: 28.2 µM [inhibitor, partial curve, poor fit]	
COc1ccc(-c2cn(-c3ccc(OC)cc3)c3[n+]2-c2ccccc2CC3)cc1	inconclusive: 25.1 µM [inhibitor, partial curve, poor fit]	
O=C1NC[C@@H](CCCCN2C[C@H](Cc3ccccc3)N(CC3CCCCC3)C(=O)C2=O)N(CC2CCCCC2)C1=O	inactive	
CCCCC(=NCCc1c(C)[nH]c2ccc(OC)cc12)C1=C(O)CC(c2ccccc2)CC1=O (stereo not given)	inactive	
COc1ccc([C@H]2CC(=O)C=C(c3ccc(CNC(=O)OC(C)(C)C)cc3)C2)cc1	inconclusive: 39.8 µM [inhibitor, single point]	
COc1ccc(C(=O)C2CCCN(C/C=C/c3ccccc3OC)C2)c(OC)c1 (stereo not given)	inconclusive: 12.6 µM [inhibitor, partial curve, poor fit]	
COc1cc(/C=c2\sc3n(c2=O)C(c2ccccc2)C(c2ccccc2)=NN=3)ccc1O (stereo not given)	inactive	
O=C1CC(c2ccc(Cl)cc2)CC(O)=C1C=NCc1ccc(Cl)c(Cl)c1 (stereo not given)	inconclusive: 31.6 µM [inhibitor, single point]	
O=C(NC1CCCCC1)c1c[nH]c2ccc(S(=O)(=O)Nc3ccccc3F)cc2c1=O	inactive	
COc1ccc(C(=O)Nc2nc3ccccc3[nH]2)cc1		inconclusive: -87.6% [inhibitor]
CCn1cc2nc(SCc3ccc(C)cc3)n(CCc3ccccc3)c(=O)c2n1	inconclusive: 39.8 µM [inhibitor, single point]	
O=C1C=C(Nc2cccnc2)c2ccccc2C1=O	inconclusive: 31.6 µM [inhibitor, partial curve, poor fit]	
Cc1ccc(OCC(=O)Nc2ccc(Cl)c(-c3nc4ccccc4[nH]3)c2)cc1C	inconclusive: 20 µM [inhibitor, partial curve]	
